Test results from PubChem BioAssay AID485344 (National Center for Advancing Translational Sciences (NCATS), 2010).
Values joined by “and” are separate entries in the source; they are usually repeats but may differ in a detail not shown here. Identical values can stand only once. The whole screen tested about 340,000 compounds, of which about 6,900 (2%) were called active. Rule as the data show it: active = inhibition above about 30%; inactive = below that, where a call was filed. Only a part is listed here, and it is no random draw. Entries without a call were filed so in the source.

Target: D(2) dopamine receptor (Homo sapiens) (UniProt P14416)
UniProt P14416, sequence (P14416 whole entry, looked up): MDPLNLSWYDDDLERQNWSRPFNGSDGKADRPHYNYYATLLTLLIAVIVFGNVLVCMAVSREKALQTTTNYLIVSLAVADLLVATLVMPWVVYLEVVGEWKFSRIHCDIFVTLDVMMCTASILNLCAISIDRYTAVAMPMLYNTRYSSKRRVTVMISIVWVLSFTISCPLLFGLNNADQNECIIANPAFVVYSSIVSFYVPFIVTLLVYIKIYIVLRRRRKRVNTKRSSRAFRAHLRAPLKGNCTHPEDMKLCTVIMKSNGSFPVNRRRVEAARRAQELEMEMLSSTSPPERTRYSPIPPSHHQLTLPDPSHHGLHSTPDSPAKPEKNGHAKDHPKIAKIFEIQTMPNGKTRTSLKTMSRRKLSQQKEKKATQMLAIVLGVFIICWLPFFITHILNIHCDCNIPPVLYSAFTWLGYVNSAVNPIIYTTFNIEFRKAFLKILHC
Test: HTS Assay for Allosteric Antagonists of the Human D2 Dopamine Receptor: Primary Screen for Antagonists; also: 0% is about no effect
Details: HEK293 TREx D2 cells, calcium flux, dopamine EC80; at 10 µM; stronger effect = higher value
Procedure, shortened: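 In this primary screen, negative modulation is detected by tracking calcium flux after an EC80 dopamine challenge in inducible HEK293 T-REx D2 cells preexposed to test compound for 180 s.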

Structure (SMILES)	inhibition
O=C(Nc1ccon1)Nc1ccc(F)cc1F	active: 31.4%
Cc1cccc(-c2noc(-c3ccc(N4CCCC4)c([N+](=O)[O-])c3)n2)c1	7.98%
COc1ccc(NC(=O)C2CCN(S(=O)(=O)c3c(C)noc3/C=C/c3ccco3)CC2)cc1	23.4%
Cc1cc(CN2CCCC(C(=O)Nc3cccc(-n4cccn4)c3)C2)cc(C)c1O (stereo unspecified)	active: 38%
CCC(=O)N1CCc2cc(CNC(=O)Nc3ccc(OC)cc3OC)ccc21	19.8%
O=C(NCCc1ccccc1)C(=O)NCC(c1cccnc1)N1CCN(c2ccc(F)cc2)CC1 (stereo unspecified)	13%
COc1ccccc1-c1cc(C(F)(F)F)nc(S(=O)(=O)CCCC(=O)Nc2cc(Br)ccc2O)n1	-1.53%
c1ccc(CNCC2COc3ccccc3O2)cc1 (stereo unspecified)	active: 61.9%
CCc1ccc(C2C(C(=O)Nc3ccccc3)=C(C)Nc3nc(SCC(=O)c4ccc(C)cc4)nn32)cc1 (stereo unspecified)	2.34%
COc1ccc(NC(=O)c2cnc(SCC(=O)Nc3nc4ccc(C)cc4s3)n(C)c2=O)cc1	-25.1%
CC(=O)c1ccc(NC(=O)Cn2c3ncccc3c(=O)n2-c2ccc(C)cc2)cc1	8.39%
O=C(NC1CCN(Cc2cccc([N+](=O)[O-])c2)CC1)c1ccccc1	active: 74.3%
Cc1cccc(C(=O)NCC(c2ccc3c(c2)OCO3)N2CCOCC2)c1 (stereo unspecified)	17.9%
Cc1ccc(-c2noc(CSc3nnc(-c4ccc(Cl)cc4)n3C)n2)cc1	12.8%
O=C(c1ccco1)c1cn(CCOc2ccc(Cl)cc2)c2ccccc12	8.29%
CC(=O)C(C)Oc1ncn(-c2ccccc2)n1 (stereo unspecified)	active: 33.4%
O=C(c1cccs1)N1CCCc2cc(NS(=O)(=O)c3ccc(Cl)cc3)ccc21	13.1%
COc1ccc(C(CNC(=O)c2ccc(C)cc2)N2CCOCC2)cc1 (stereo unspecified)	-25.9%
O=C(CSc1nncs1)NC1CCCCCCC1	active: 31.5%
COc1cccc(C(=O)CN2CCN(S(=O)(=O)c3ccc(Cl)cc3)CC2)c1	9.25%
COc1cc2ccccc2cc1C(=O)Nc1ccc2oc(-c3cc(Br)ccc3Cl)nc2c1	5.67%
COc1cc(NC(=O)CCc2c(C)n(C)c3cc(-c4ccccc4C)nn3c2=O)cc(OC)c1OC	3.33%
O=C(CN1C(=O)CSc2ccc(S(=O)(=O)N3CCCCC3)cc21)NCc1ccc(F)cc1Cl	-3.62%
O=C(NCc1ccco1)c1ccc2c(c1)N(Cc1ccc(F)cc1)C(=O)c1ccccc1S2=O (stereo unspecified)	-6.91%

Structure (SMILES)	inhibition
COc1ccc(OC)c(CNc2nc3ccccc3n2CCN2CCCCC2)c1	active: 33.5%
CCOc1ccccc1NC(=O)c1sc2nc3c(cc2c1N)CN(Cc1ccccc1)CC3	16.7%
CCc1nnc(NC(=O)c2nc(S(C)(=O)=O)ncc2Cl)s1	-5.32%
O=C(CSc1nc2c([nH]c3ccccc32)c(=O)n1-c1cccc(Cl)c1)N1CCc2ccccc21	14.7%
COc1cccc(Cc2nc3ccccc3nc2SCC(=O)N2CCCCC2C)c1 (stereo unspecified)	5.81%
Cc1ccc2nc(NCc3ccccc3Cl)c3nnnn3c2c1	-16.1%
COc1ccc(Cl)cc1NC(=O)c1cc(S(=O)(=O)N2CCc3ccccc32)cn1C	13%
Cc1cccc(-n2c(=O)c3ccccc3n(Cc3ccccc3C#N)c2=O)c1	8.87%
COc1cc2c(C(=O)N3CCN(c4cccc(C)c4)C(C)C3)cn(CC(C)C)c(=O)c2cc1OC (stereo unspecified)	10.1%
Cc1nn(CCC(=O)NC(C)C)c(=O)c2nn(-c3ccccc3)c(C)c12	-0.156%
Cc1ccc(NC(=O)CCS(=O)(=O)c2cccc3nonc23)c(C)c1	-12.5%
CC(C)c1ccc(C2=CC(c3cccc(Cl)c3)n3ncnc3N2)cc1 (stereo unspecified)	10.1%
CCOc1ccc(NC(=O)Cn2c(CCC(=O)O)ccc2-c2ccc(Cl)cc2)cc1	15.6%
CCCN1C(C(=O)c2ccccc2)=C(OC(=O)c2ccc(F)cc2)c2ccccc2S1(=O)=O	11.7%
Cc1ccc(Oc2nc(-c3ccccc3)ncc2S(=O)(=O)c2ccc(C)cc2)cc1	active: 40.5%
Cc1ccc(C(NC(N)=O)c2ccccc2)cc1 (stereo unspecified)	active: 39.8%
COc1cccc(N2CCN(C(=O)c3ccc(CS(=O)c4cccc(Cl)c4)o3)CC2)c1 (stereo unspecified)	-2.47%
O=C(NCCc1ccc(Cl)cc1)c1ccc2c(c1)N(Cc1ccccc1)CCS2	0.257%
COc1ccc(NC(=O)c2nc(SCc3ccccc3F)ncc2Cl)cc1	5.94%
Cc1ccc(C)c(NC(=O)CCc2c(C)n(C)c3cc(-c4ccccc4C)nn3c2=O)c1	-21.3%
COc1ccc(NC(=O)CN(C)S(=O)(=O)c2ccc3[nH]c4c(c3c2)CCCC4)cc1OC	12.2%
CC(C)Oc1ccc(CNC(=O)c2ccc3nc(SCc4ccc(F)cc4)n(C)c3c2)cc1	3.2%
Cc1ccccc1Cn1c(C)c(CNCc2ccccc2)c(C(=O)O)c1C	-0.933%
CC(NC(=O)c1ccc2nc(CCc3ccccc3)oc2c1)c1ccccc1 (stereo unspecified)	9.03%

Structure (SMILES)	inhibition
CN(C)S(=O)(=O)Nc1ccc(-c2cn3ccsc3n2)cc1	0.319%
CCc1ccccc1NC(=O)C1CCN(c2nn3c(=O)cc(C)nc3s2)CC1	-0.0515%
CCc1ccc(-n2c(=O)c3c4c(sc3n(CC(=O)NCCCOC)c2=O)CCC4)cc1	5.2%
Cc1cccc(Cc2cnc(NC(=O)c3ccc4c(c3)CC(c3ccccc3)OC4=O)s2)c1 (stereo unspecified)	9.73%
Cc1ccc2oc(C(=O)Nc3ccc(S(=O)(=O)N(C)Cc4ccccc4)cc3)cc(=O)c2c1	0.445%
Cc1ccc(-n2nc(C(=O)N3CCN(c4ccccc4)CC3)c(=O)n(C)c2=O)cc1	11.2%
COC(=O)c1ccccc1NC(=O)c1nc(S(=O)(=O)Cc2ccccc2F)ncc1Cl	-11.8%
CCCCOc1ccc(S(=O)(=O)n2nc(C)c(S(=O)(=O)N3CCC(C)CC3)c2C)cc1	23.7%
Cc1ccn2c(Nc3ccc4c(c3)OCO4)c(-c3ccc(O)cc3)nc2c1	-5.32%
CCCOC(=O)C(C)n1nnc2sc(-c3ccccc3)cc2c1=O (stereo unspecified)	14.3%
COc1cccc(CNS(=O)(=O)c2cc(Br)cc3c2N(C(C)=O)C(C)C3)c1 (stereo unspecified)	active: 39.9% and -17.4%
COC(=O)c1sc(-c2ccccc2)cc1NC(=O)Nc1ccc(F)cc1	2.97%
COc1ccc(C(CC(=O)NCc2ccc(Cl)cc2)N2Cc3ccccc3C2=O)cc1OC (stereo unspecified)	3.91%
Cc1cc(C)cc(NC(=O)C2CCCN2S(=O)(=O)c2ccc3nc(-c4ccccc4)[nH]c3c2)c1 (stereo unspecified)	-1.83%
Cc1ccc(OCC(=O)Nc2ccc(S(=O)(=O)Nc3cc(C)on3)cc2)c(Br)c1	17.4%
CCOc1ccccc1C(=O)NC1CC2CCCC(C1)N2Cc1ccccc1 (stereo unspecified)	active: 92.5%
CCOc1ccccc1-c1nc(Cn2c(=O)cc(C)c3c(C)nn(-c4ccccc4)c32)c(C)o1	6.05%
O=C(CSc1nc(-c2ccccc2F)nc2cc(=O)[nH]n12)Nc1cccc(C(F)(F)F)c1	-7.38%
CCC1Oc2ccccc2N(CC(=O)NCc2cc(OC)ccc2OC)C1=O (stereo unspecified)	-2.45%
CCCC(=O)N1CCc2cc(OC)c(OC)cc2C1COc1ccc(C(=O)OC)cc1 (stereo unspecified)	22.2%
CCN(CC)C(=O)Cn1c(=O)n(CC2CCC(C(=O)NC)CC2)c(=O)c2sccc21 (stereo unspecified)	-7.62%
COc1ccc(CCNC(=O)C2CCN(Cc3nc(-c4ccc(OC)c(OC)c4)oc3C)CC2)cc1OC	21%
Cc1ccc(/C=C(\C#N)C(=O)Nc2cccc(Cl)c2)o1	-0.0624%
Cc1cc2ccccc2c(=O)n1CC(=O)NCC(=O)N1CCN(c2ccccc2)CC1	active: 64%

Structure (SMILES)	inhibition
O=C(CSC1=NCCN1)Nc1cccc([N+](=O)[O-])c1	active: 49.1%
O=C(NCCn1cc(SCc2ccc(Br)cc2)c2ccccc21)c1cccs1	8.5%
O=C(O)c1c(-c2ccccc2)oc2ccc(OCc3c(F)cccc3Cl)cc12	-1.42%
COc1cccc(C(=O)Nc2cccc(-c3nc4ncccn4c3C)c2)c1	7.88%
Cc1cc(C)cc(C(=O)Nc2ccc3[nH]c(=O)[nH]c3c2)c1	active: 30.2%
CCCCC(O)CN1CCC(c2ccccc2)CC1 (stereo unspecified)	active: 48.3%
COc1ccc(-c2nc3cc(C)ccn3c2NC(=O)c2cccc(F)c2)cc1	-9.36%
Cn1c(=O)c2c(-c3ccc(Br)cc3)n(Cc3ccc(F)cc3)cc2n(C)c1=O	1.55%
Cn1c(SCC(=O)Nc2nc3ccccc3s2)ncc(C(=O)Nc2ccccc2)c1=O	15.7%
COc1cccc(CNC(=O)CN2C(=O)N(c3ccc(C)cc3C)S(=O)(=O)c3ccccc32)c1OC	-4.56%
CCc1nn(CC(=O)NCCCN(CC)CC)c(=O)c2cc3occc3n12	5.67%
CC1CCCCN1S(=O)(=O)c1ccc(C(=O)Nc2sccc2C(N)=O)cc1 (stereo unspecified)	active: 31.4%
CCc1nc(-c2cc(S(=O)(=O)N3CCN(c4ccccc4)CC3)ccc2OC)no1	-8.88%
Cc1ccc2onc(CNC(=O)NCc3ccc(Cl)cc3)c2c1	-3.77%
COc1ccc(C)cc1-n1cnc2cc(C(=O)NC3CCCCCC3)ccc21	13%
O=C1COc2cc(S(=O)(=O)CCC(=O)NC3CCCCC3)c(Cl)cc2N1	0.467%
O=C(CSc1nccn1-c1cccc(Cl)c1)Nc1cccc2ccccc12	3.52%
CCOc1ccc(CCNC(=O)CCCc2nnc3n(CC)c(=O)c4sccc4n23)cc1	-3.6%
CCSc1ncc(Cl)c(C(=O)Nc2c(C(=O)Nc3ccccc3)oc3ccccc23)n1	9.11%
O=C(CCCCn1c(=O)c2ccccc2n(Cc2cccc(F)c2)c1=O)NCc1ccc2c(c1)OCO2	-3.99%
Cc1cccc(Nc2c(-c3ccsc3)nc3nc(C)cc(C)n23)c1	6.99%
CCOC(=O)c1c(C)[nH]c(C)c1S(=O)(=O)N(C)CC(=O)NCc1ccc(Cl)cc1	8.1%
COc1ccc(-n2cnc3cc(C(=O)NC4CCCCCC4)ccc32)cc1	-13.1%
Cc1ccc(C(=O)c2oc3ccccc3c2NC(=O)Cc2coc3ccc(C)cc23)cc1	1.21%
